“And” between values parts separate entries of the source, which are not always exact repeats. Equal values may be shown once. About 40 (0.2%) of roughly 16,000 compounds were called active. Roughly 1% stayed inconclusive and do not appear here. Calls come from the whole dose curve; as a rule, active = well fitted activation curve with a large enough effect; inconclusive = small, poorly fitted or top-dose-only effect, or another doubt; inactive = no such curve, though single readings can be large or run the other way. Some of the results follow.
Target: Rap guanine nucleotide exchange factor 4 (Homo sapiens) (UniProt Q8WZA2)
Test: Validation qHTS for agonist of cAMP-regulated guanine nucleotide exchange factor 4 (EPAC2);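 note: exchange makes BODIPY-GDP fluorescence drop when released from Rap1B; series mostly up to about 150 µM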
Conditions: EPAC2 Rap1B BODIPY-GDP exchange, fluorescence; activation: active compounds read high
Summary of the method: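 Signal normalized against 6.5 mM cAMP as agonist control. Mix of EPAC2 (100 nM), RAP1B-BODIPY-GDP (250 nM) and GDP (50 uM) was read kinetically at 480/540 nm, every 5 min over 30 min, after 5 min room-temperature incubation with compound.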
% is set by controls: 0 for no effect and ±100 for the full control effect.

Chain of UniProt Q8WZA2 (Q8WZA2 whole entry, looked up): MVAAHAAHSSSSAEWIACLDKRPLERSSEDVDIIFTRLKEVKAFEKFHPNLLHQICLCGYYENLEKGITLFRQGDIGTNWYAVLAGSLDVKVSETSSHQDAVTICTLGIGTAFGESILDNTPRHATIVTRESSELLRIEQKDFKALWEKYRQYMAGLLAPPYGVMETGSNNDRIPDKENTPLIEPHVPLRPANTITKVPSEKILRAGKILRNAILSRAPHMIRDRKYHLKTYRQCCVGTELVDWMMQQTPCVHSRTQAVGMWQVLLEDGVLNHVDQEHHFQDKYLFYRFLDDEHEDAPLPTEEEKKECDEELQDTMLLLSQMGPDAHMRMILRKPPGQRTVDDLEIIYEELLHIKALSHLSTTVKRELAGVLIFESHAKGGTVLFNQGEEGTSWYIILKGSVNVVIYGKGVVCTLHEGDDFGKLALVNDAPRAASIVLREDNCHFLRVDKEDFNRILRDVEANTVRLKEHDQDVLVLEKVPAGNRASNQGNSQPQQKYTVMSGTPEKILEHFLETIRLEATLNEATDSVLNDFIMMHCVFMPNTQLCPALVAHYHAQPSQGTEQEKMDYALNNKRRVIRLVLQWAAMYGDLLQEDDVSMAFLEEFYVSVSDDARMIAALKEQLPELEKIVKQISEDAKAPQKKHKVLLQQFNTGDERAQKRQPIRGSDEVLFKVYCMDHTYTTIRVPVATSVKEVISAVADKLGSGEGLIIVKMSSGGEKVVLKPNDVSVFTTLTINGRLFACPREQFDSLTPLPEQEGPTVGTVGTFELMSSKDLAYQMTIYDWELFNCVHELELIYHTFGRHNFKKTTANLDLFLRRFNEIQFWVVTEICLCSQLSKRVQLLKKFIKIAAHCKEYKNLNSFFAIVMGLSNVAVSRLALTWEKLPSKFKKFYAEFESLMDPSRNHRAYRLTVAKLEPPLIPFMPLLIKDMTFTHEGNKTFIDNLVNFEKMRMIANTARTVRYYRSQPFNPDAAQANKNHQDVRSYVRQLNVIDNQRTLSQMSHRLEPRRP

activation, inactive:
O=c1c2cc(O)c(O)cc2oc2cc(O)c(C3OC(CO)C(O)C(O)C3O)c(O)c12 (stereo unspecified) -7.25%
O=C(Nc1ccccc1)N1CC[C@@]2(CCCN(C(=O)c3cccc(F)c3)C2)C1 2.73%
COC(=O)c1cc(CNC(=O)c2ccncc2)cc(NC(=O)c2ccccc2Cl)c1 -9.97%
CCCC(=O)Nc1ncnc2c1ncn2[C@@H]1O[C@@H]2COP(=O)(O)O[C@H]2[C@H]1OC(=O)CCC 3.32%
O=c1c(CCc2ccccc2)nc2cnc(N3CCNCC3)nc2n1-c1ccccc1 8.18%
COCCn1c(=O)c(-c2ccc(F)cc2)nc2cnc(Oc3cccc(Cl)c3)nc21 -5.94%
N#Cc1cccc(NC(=O)N2CC[C@@]3(CCCN(C(=O)c4ccncc4)C3)C2)c1 -25.9%
O=C(c1ccncc1)N1CCC2(CCCN(c3ccccn3)C2)CC1 -18.9%
COc1ccc2c(c1)-c1nc(-n3ncc(C(=O)NC(C)(C)CO)c3C3CC3)ncc1CC2 -16%
CN(C)CCC[C@@]1(c2ccc(F)cc2)OCc2cc(C#N)ccc21 -1.24% and -12.6%
CC(=O)N[C@@H](CCC(=O)O)C(=O)O 11.5%
Cc1ccccc1-c1ccc2ncnc(NCc3cccs3)c2c1 -8.39%
CC1=CC(=O)NS(=O)(=O)O1 -1.09%
Nc1ncnc2c1ncn2[C@@H]1O[C@H](COP(=O)(O)OP(=O)(O)OP(=O)(O)OP(=O)(O)OC[C@@H]2O[C@H](n3cnc4c(N)ncnc43)[C@@H](O)[C@H]2O)[C@@H](O)[C@H]1O 12.8% and -62.2%
COc1ccc(-n2c(CNC(=O)c3c(-c4ccccc4)noc3C)nnc2SC)cc1 -16.2%
O=C(c1ccco1)N1CCC2(CC1)CCN(c1ncccn1)CC2 -2.43%
O=C(c1ccncc1)N1CCC[C@@]2(CCN(c3ncccn3)C2)C1 -14.8%
FC(F)(F)C(F)(F)C(F)(F)C(F)(F)C(F)(F)C(F)(F)C(F)(F)C(F)(F)Br 5.37%
CCOc1ccc(N=C(C)Nc2ccc(OCC)cc2)cc1 -15%
CC(C)c1c(O)ccc2c1CCC1C(C)(C)CCC[C@@]21C (stereo partly specified) -14.4%
CN1CCCC1c1cccnc1 (stereo unspecified) -2.74%
O=C(c1cnccn1)N1CCC2(CCN(Cc3cc(C(F)(F)F)cc(C(F)(F)F)c3)CC2)CC1 -33.6%
CN1CCCC(n2nc(Cc3ccc(Cl)cc3)c3ccccc3c2=O)CC1 (stereo unspecified) -11.8%
CCCCCCCCN1[C@@H](CC(=O)OCC)c2ccc(C(F)(F)F)cc2S1(=O)=O -50.2%
Cc1ccc(C)c2c(C)ccnc12 -9.37%
CC(C)[C@@H](COc1ccccc1)N1CCN(Cc2ccccc2)CCC1=O -33.7%
COc1cccc(CN2Cc3cccc4c3[C@H](C=CC4)CC2=O)c1 -7.06%
Cc1cnc2ccccc2c1C -19.8%
COc1ccc(CN2CCOc3ccc(C(O)c4cccnc4)cc3C2)cc1 (stereo unspecified) -16.3%
CCCCCCCN1CCC(=O)N([C@H](CO)Cc2ccccc2)CC1 -58.2%
Nc1nc(-c2ccccc2)c(Br)c(=O)[nH]1 11.7%
NC(N)=N/N=C\c1c(Cl)cccc1Cl -4.63%
CCCCCCCN1CCC(=O)N(CCO)CC1 4.65%
COc1cc(-c2cccnc2)cc2c1OCCN(C(=O)Cc1csc(C)n1)C2 -0.405%
O[C@@H](c1ccccc1)C1CCN(CCc2ccccc2)CC1 -7.8%
CCN(CC)CCOc1ccc(/C(=C(\Cl)c2ccccc2)c2ccccc2)cc1 -0.0547% and 2.6%
CC(=O)OCOC(=O)CN(CC(=O)OCOC(C)=O)c1ccccc1OCCOc1ccccc1N(CC(=O)OCOC(C)=O)CC(=O)OCOC(C)=O -2.6%
O=[N+]([O-])c1ccc2nc(CO)[nH]c2c1 -9.59%
COc1ccccc1CNc1ncncc1-c1ccccc1Cl -13.8%
CCNc1ncc2nc(-c3ccc(OC)cc3)c(=O)n(-c3ccc(OC)cc3)c2n1 0.246%
c1cncc(-c2cncnc2NC2CCNCC2)c1 -12.3%
NCC1CCC(C(=O)Oc2ccc(CCC(=O)O)cc2)CC1 (stereo unspecified) -15.8%
CCC1(C2CCN(C(=O)c3csc(C(C)=O)c3)CC2)NC(=O)N(CCc2scnc2C)C1=O (stereo unspecified) -1.67%
CNc1ccnc(-c2ccccc2OC)n1 -23%
CCNc1ncc2nc(CCc3ccccc3)c(=O)n(C)c2n1 -9.4%
C=C1c2c(Cl)ccc(O)c2C(O)=C2C(=O)[C@]3(O)C(O)=C(C(N)=O)C(=O)[C@@H](N(C)C)[C@@H]3[C@@H](O)C12 (stereo partly specified) -2.25%
NC(=O)N/N=C/c1ccc([N+](=O)[O-])o1 -10.8% and 9.55% and 11%
O=C(O[C@H]1CN2CCC1CC2)N1CCc2ccccc2[C@@H]1c1ccccc1 -4.55%
C=C1c2cccc(O)c2C(O)=C2C(=O)[C@]3(O)C(O)=C(C(N)=O)C(=O)C(N(C)C)C3C(O)C12 (stereo partly specified) -12.1%
Cc1c(C(=O)NCCCN2CCCC2=O)cnn1-c1ncc2c(n1)-c1ccccc1CC2 4.81%
O=C(O)c1[nH]n(-c2ccc(S(=O)(=O)O)cc2)c(=O)c1N=Nc1ccc(S(=O)(=O)O)cc1 -21.8%
COc1ccc(Oc2ncc3ncc(=O)n(Cc4ccc(F)cc4)c3n2)cc1 -8.25%
O=C[C@H](O)[C@@H](O)[C@@H](O)[C@H](O)CO -8.18%
COc1ccc(-n2c(=O)c(-c3cccs3)nc3cnc(N(C)C)nc32)cc1 -14.5%
CC(C)C[C@H](NC(=O)[C@H](CCc1ccccc1)NC(=O)CN1CCOCC1)C(=O)N[C@@H](Cc1ccccc1)C(=O)N[C@@H](CC(C)C)C(=O)[C@@]1(C)CO1 -11%
O=c1ccn([C@@H]2O[C@H](COP(=O)(O)O)[C@@H](O)[C@H]2O)c(=O)[nH]1 -4.23%
N#Cc1cccc(-c2ccc3ncnc(NCc4cccnc4)c3c2)c1 -15.9%
O=S(O)CNc1ccc(S(=O)(=O)c2ccc(NCS(=O)O)cc2)cc1 -12.8%
CC(C)[C@H](N)C(=O)OCCOCn1cnc2c(=O)[nH]c(N)nc21 17.3%
CC(C)(O)C#Cc1ccc(CN2CCc3nnc(CCNC(=O)c4ccco4)n3CC2)cc1 -4.75%
O=C(CCN1Cc2ccccc2OC(c2ccccc2)C1)N[C@@H]1CS(=O)(=O)C[C@H]1O (stereo partly specified) -2.36%
Brc1c(Br)c(Br)c2n[nH]nc2c1Br -60.9%
Cc1ccc2[nH]nc(C(=O)N3CCOc4ccc(CN5CCc6sccc6C5)cc4C3)c2c1 -20.3%
CN(C)C(=N)N=C(N)N 4.5% and 4.91%
CN1CCC(=O)N([C@H](CN=[N+]=[N-])c2ccccc2)CC1 -14.9%
O=C(c1ccncc1)N1CCC2(CCCN(c3ccccc3)C2)CC1 3.06%
O=c1c(-c2ccccc2)nc2cnc(Oc3ccccc3)nc2n1C1CC1 1.5%
O=c1cnc2cnc(Nc3ccccc3)nc2n1C[C@H]1CCCO1 -4.56%
CCS(=O)(=O)N(C)[C@@H]1c2cc(C#N)ccc2OC(C)(C)[C@H]1O -14.8% and -7.63%
O=Nc1c(-c2c(O)[nH]c3cc(Br)ccc23)[nH]c2ccccc12 -6.43%
O=C1c2ccccc2-n2c1nc1ccccc1c2=O -10.7%
O=C(NCc1ccncc1)c1cnn(-c2ncc3c(n2)-c2ccccc2CC3)c1C1CC1 -5.81%
O=C(NCO)c1cccnc1 -4.55%
CO[C@@H]1[C@@H](OC(N)=O)[C@@H](O)[C@H](Oc2ccc3c(O)c(NC(=O)c4ccc(O)c(CC=C(C)C)c4)c(=O)oc3c2C)OC1(C)C -10.7%
NC1=NCCCC1 -12.1%
COCC(=O)Nc1cc(C(=O)N2CCCC(c3ccccc3)CC2)c2c(c1)nc(-c1ccncc1)n2C (stereo unspecified) -5.52%
CSC(N)=NCCCC(N)C(=O)O (stereo unspecified) -12.7%
Cc1noc(C)c1C(=O)N1CCC[C@@]2(CCN(Cc3nccs3)C2)C1 -2.88%
CCCc1c(OCCCCc2nn[nH]n2)ccc(C(C)=O)c1O -10.3% and -6.17% and -32.3%
CC(=O)Oc1cccc(O)c1 -9.46%
CCOC(=O)c1c[nH]c2nc(C)ccc2c1=O -19%
Cc1occc1C(=O)Nc1cccc(-c2nc(CNC(=O)c3ccc(N4CCCCC4)cc3)c(C)o2)c1 -4.85%
O=C1CCNCCN1[C@H](CO)c1ccccc1 -16.1%
CCOC(=O)C[C@H]1c2cc(F)ccc2S(=O)(=O)N1c1cccc(OC)c1 -13.1%
CSc1nc(C(=O)N2CCc3c(cnc(C)c3CNC(=O)c3ccc4c(c3)OCO4)C2)cs1 0.51%
O=C(O)CC[C@@H](C(=O)O)N1C(=O)c2ccccc2C1=O -41.6%
